This note sets out measurements from PubChem BioAssay (NCATS).

Results filed as inconclusive are left out. The call rests on the fitted dose curve; in most records, active means well fitted cell-killing curve with a large enough effect; inconclusive means small, poorly fitted or top-dose-only effect; inactive means flat fitted curve, though single readings scatter. More than one record can exist for a structure, and the calls need not agree. Certain results were filed several times, with different values. This list holds those alone. The source may hold further records. Values given together are repeats in other runs, samples, wells, individuals or studies. Marks in square brackets tell the records apart. Letters hold for one entry only.
Potency means the concentration at half of the fitted maximal effect.

This assay is described as follows: qHTS of pediatric cancer cell lines to identify multiple opportunities for drug repurposing: Primary screen for RD cells (AID 1347104). Further: nearly all actives have a fitted effect of over 55% in size. The conditions noted are these: RD rhabdomyosarcoma viability, CellTiter-Glo luminescence, 48 h; series mostly up to 46 µM. From the text:
Drug repurposing or repositioning has been offered as a strategy for drug development in oncology programs. This approach has special potential for childhood cancers and other rare or orphan diseases, where the expected return on new drug development has been a disincentive to pharmaceuticals. […] In this project we exploit the poly-pharmacology of drugs to discover new indications via phenotypic screening of a panel of 19 well-characterized cell lines derived from solid tumors seen in children and adolescents. The goal is to identify approved drugs with previously unrecognized anticancer properties that has the potential to reveal new mechanisms and biological processes involved in carcinogenesis or drug resistance. We employed a titration-based paradigm (quantitative high-throughput screening or qHTS), where all compounds were tested at multiple concentrations for their effect on cell viability. Concentration-response curves (CRCs) were derived directly from the primary screen, and both potency and efficacy values were used to identify compounds with robust bioactivity profiles. We screened the NIH Chemical Genomics Center (NCGC) Pharmaceutical Collection (NPC) and Mechanism Interrogation Plate (MIPE) small molecule collections of approved and investigational compounds against these cell lines; and measured metabolically active cells after 48 hours of compound treatment as a proxy for cell viability. […] Assay Submitter: Nathalia J. Martinez, National Center for Advancing Translational Sciences, National Institutes of Health, Rockville, MD, USA; email: natalia.martinez@nih.gov Shen, M et al. Quantitative high-throughput phenotypic screening of pediatric cancer cell lines identifies multiple opportunities for drug repurposing. Oncotarget 2017 Dec 19;9(4):4758-4772. PMID 29435139.
The cells were obtained from University of North Carolina (UNC), Pediatric Preclinical Testing Program (PPT), and Coriell Institute (CI). qHTS cell viability assay: Cells were assayed in growth media at a density of 500-1,000 cells/well. Five microliters of cells were dispensed into 1,536-well, white, solid-bottom, TC-treated plates (Greiner Bio One) using a multidrop dispenser and incubated at 37 degrees C, 5% CO2, under a humidified atmosphere for 5 hours. Twenty-three nanoliters of compounds and controls (neutral control DMSO or positive control bortezomib at final concentration of 2.3 µM) were subsequently transferred by Kalypsys pintool. For primary screens, the MIPE collection was tested at 11-point dilutions (final concentrations range from 0.78 nM to 46 µM) and the NPC collection at 8-point dilutions (final concentrations range from 0.59 nM to 46 µM). Compounds tested in follow-up screens were assayed at 11-point dilutions. Cells were incubated for 48 hours, followed by addition of 3 µL of CellTiter-Glo (Promega). After a 15 min incubation at room temperature, samples were analyzed for luminescence intensity using a ViewLux High-throughput CCD imager equipped with clear filters.
In general terms: Quantitative high-throughput screening tests each substance at several concentrations.
`CC(C)NCC(O)c1ccc(O)c(O)c1` (stereo not given): the Potency entry is “active: 3.32 µM [sample A] and inactive [sample B]”.
Take `CN1CCC(=C2c3ccccc3CC(=O)c3sccc32)CC1`: the Potency result is “active: 37.2 µM [sample A] and inactive [sample B]”.
The same measure for `CCC1(c2ccccc2)C(=O)NCNC1=O`: “active: 16.6 µM [sample A] and inactive [sample B]”; for `OCCN(CCO)c1nc(N2CCCCC2)c2nc(N(CCO)CCO)nc(N3CCCCC3)c2n1`: “active: 29.6 µM [sample A] and inactive [sample B]”; for `CC(C)C(=O)Nc1ccc([N+](=O)[O-])c(C(F)(F)F)c1`: “inactive [sample A] and active: 935 nM [sample B]”.
For `NC(=O)NO`, the Potency result was “inactive [sample A] and active: 3.32 µM [sample B]”.
On to `O=C1Cc2cc(CCN3CCN(c4nsc5ccccc45)CC3)c(Cl)cc2N1`, for which the Potency entry is “inactive [sample A] and active: 33.2 µM [sample B]”.
As to `CC(C(=O)O)c1cccc(C(=O)c2ccccc2)c1` (stereo not given), the Potency result was “inactive [sample A] and active: 29.6 µM [sample B]”.
For `CC12CC3CC(C)(C1)CC(N)(C3)C2`, the Potency entry was “active: 18.7 µM [sample A] and inactive [sample B]”.
The same measure for `Cn1cnc2c1c(=O)[nH]c(=O)n2C`: “inactive [sample A] and active: 26.4 µM [sample B]”.
